Results published in the supplement of paper PMC3334620.
The full ranking holds about 33,000 sequences; the median of “E-score (-0.5 to 0.5)” is about -0.041, and the highest 2% start at about 0.37. Some of the results follow.

target: T1, Ecm22 (UniProt Q05958); assay: PBM E-score (8-mer binding enrichment) (E-score (-0.5 to 0.5)); higher = stronger / more preferred TF binding; most listed sequences are background and not binding sites; conditions: protein concentration: 200 nM; construct: GST-full length
T1 sequence: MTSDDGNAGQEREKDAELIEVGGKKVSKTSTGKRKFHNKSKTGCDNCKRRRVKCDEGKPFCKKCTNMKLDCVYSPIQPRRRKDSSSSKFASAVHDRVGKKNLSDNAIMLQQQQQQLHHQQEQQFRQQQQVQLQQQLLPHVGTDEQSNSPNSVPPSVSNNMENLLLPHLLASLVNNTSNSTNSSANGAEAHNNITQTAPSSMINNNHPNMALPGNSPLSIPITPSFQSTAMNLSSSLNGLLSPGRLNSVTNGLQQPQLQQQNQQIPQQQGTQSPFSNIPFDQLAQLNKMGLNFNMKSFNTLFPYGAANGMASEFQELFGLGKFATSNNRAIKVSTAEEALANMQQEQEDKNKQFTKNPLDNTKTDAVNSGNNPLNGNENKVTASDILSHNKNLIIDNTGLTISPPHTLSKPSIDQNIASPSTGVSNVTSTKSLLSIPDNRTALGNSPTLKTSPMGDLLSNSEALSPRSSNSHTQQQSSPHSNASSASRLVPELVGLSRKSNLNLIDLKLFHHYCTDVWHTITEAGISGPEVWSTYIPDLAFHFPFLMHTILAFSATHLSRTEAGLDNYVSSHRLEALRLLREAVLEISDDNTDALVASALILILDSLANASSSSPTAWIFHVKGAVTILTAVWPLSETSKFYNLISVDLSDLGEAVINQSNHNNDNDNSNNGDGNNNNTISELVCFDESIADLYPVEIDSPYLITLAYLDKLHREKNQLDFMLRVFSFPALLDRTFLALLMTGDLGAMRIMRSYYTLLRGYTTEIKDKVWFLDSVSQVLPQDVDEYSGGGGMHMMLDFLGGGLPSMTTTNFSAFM
Outline: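 Masliner-normalised scans of fluorescent anti-GST signal were the basis for scoring. That signal came from GST-tagged yeast transcription factors applied at about 100-200 nM to double-stranded universal all-10-mer Agilent arrays on fresh or once-stripped slides. Each ungapped eight-base word, pooled with its reverse complement, received an E-score from the Universal PBM Analysis Suite.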

Row | Sequence | PBM E-score
1 | CCACAACC | 0.0425
2 | CTAGAGCC | -0.308
3 | AACCAGCA | -0.296
4 | AAGAGAGT | -0.162
5 | ACTGGTGA | -0.326
6 | CCCCCCCA | -0.413
7 | GATGCATA | 0.0515
8 | CCTTAATA | -0.122
9 | CACTCTCC | -0.264
10 | CAAGATAG | -0.0323
11 | GGTACAGA | -0.0866
12 | GCGATTAC | 0.144
13 | CATCCTGC | -0.161
14 | CCACTCAC | -0.0565
15 | GACCGCGA | 0.156
16 | GTATGAGA | 0.0501
17 | ATAGCAAA | -0.0689
18 | CATGCGGC | -0.224
19 | GCAAGCCC | -0.12
20 | AAGCGCGG | -0.113
21 | ATGAGGAA | -0.0353
22 | CCAAGCGA | 0.219
23 | CCCGACAC | -0.135
24 | CAAGTTGG | -0.226
25 | ATCCCATA | -0.119

Row | Sequence | PBM E-score
26 | ATACTGCG | 0.136
27 | AGTCACAA | -0.0742
28 | CATGGTCC | -0.197
29 | CAGGTACC | -0.126
30 | AGTCTGCG | -0.106
31 | CCTCCTCG | 0.144
32 | GAACGGGC | 0.338
33 | GAAGCGTC | 0.00657
34 | AGACCGAT | -0.0254
35 | AGCATCCC | -0.268
36 | CACATGGG | -0.238
37 | GTTGGGGA | -0.177
38 | AGTGGGTA | -0.00122
39 | ACTACAAC | 0.0838
40 | TATGGGAA | -0.0838
41 | AAAAACGA | 0.323
42 | CACGCAGA | 0.0454
43 | TCTCCGCA | -0.151
44 | CCTCCCGC | -0.147
45 | ACAGGACC | -0.288
46 | AGCACGAG | 0.221
47 | GGTATCAA | -0.265
48 | CGAGAACG | 0.297
49 | ATGTCGCG | 0.158
50 | AGGGATCC | -0.0933

Row | Sequence | PBM E-score
51 | ACTTGTTC | 0.0403
52 | GCGAGACC | 0.139
53 | GCTGACCA | -0.0795
54 | GAAGAACC | 0.0504
55 | AATGAATT | -0.00037
56 | CAACTAGA | -0.169
57 | AAGATATC | -0.123
58 | GAGTAGGA | -0.118
59 | CTATTTGC | -0.161
60 | CCTCGTTA | 0.402
61 | GTCAAATA | 0.063
62 | GCGGCTTA | -0.0737
63 | CGCACTTC | 0.0345
64 | AAATTACA | 0.142
65 | CTTATATA | 0.193
66 | AGGGGAAA | -0.223
67 | AACTGCGC | -0.0255
68 | CCGTGACG | -0.222
69 | AATTGGCG | 0.049
70 | GATGATGA | 0.0734
71 | GTAGCCAC | -0.228
72 | CAACGTCC | -0.146
73 | AAGATTTG | 0.0188
74 | AAGATTGT | 0.00384
75 | ATTACTCC | -0.138

Row | Sequence | PBM E-score
76 | GATTAGAA | 0.0243
77 | CTATGTTA | -0.0263
78 | CTTCAGAC | -0.153
79 | CCGTTTAC | 0.416
80 | CATGTACA | -0.0676
81 | CACGGCTC | -0.135
82 | GCGTACAA | 0.243
83 | ACTATGCG | 0.294
84 | ATGACCTC | -0.132
85 | AATGGTCT | -0.274
86 | AGCATGAA | -0.072
87 | CTCGCATC | 0.304
88 | ACTCAGCG | -0.226
89 | GGGCAAGA | 0.0255
90 | ACATAACC | -0.0386
91 | ATTTGGTC | 0.023
92 | ACGCATCC | 0.206
93 | CCTTTTGA | 0.0464
94 | CAGCGTGG | -0.04
95 | GCTGTTAC | -0.0482
96 | AAGTGTGC | -0.111
97 | CACTACCA | 0.0485
98 | AACCAACT | -0.0109
99 | GTAGAGAC | -0.185
100 | CATGGAGG | -0.215

Row | Sequence | PBM E-score
101 | GCCTGGTA | -0.0018
102 | ACCACACG | 0.135
103 | CTAGCGCC | -0.233
104 | GGTCTAAC | -0.0964
105 | AGTTTCTA | -0.0187
106 | GCCGAGAA | 0.0598
107 | CTTTCAGC | -0.112
108 | AGTGCGCC | -0.124
109 | TCGATTAA | 0.19
110 | AACCCCTT | -0.053
111 | CGGCTATA | 0.073
112 | CTCCAAAA | -0.226
113 | CTTACCTA | -0.117
114 | GACTCGAC | 0.0219
115 | CAAGCACC | -0.192
116 | ATAGAACG | 0.303
117 | TACGCAAA | 0.163
118 | ATCATCGA | -0.0348
119 | AGTCGAGA | 0.0366
120 | TAGTGGCA | -0.179
121 | AAAGGCAG | -0.157
122 | CAACGATC | 0.175
123 | TCAACGGA | -0.0109
124 | AGTAGTAA | 0.0772
125 | CGACGGGA | 0.227

Row | Sequence | PBM E-score
126 | AGGGACCG | -0.0157
127 | AGATATCG | 0.0487
128 | CTCTTGAA | -0.239
129 | CACTGTGA | -0.0536
130 | AATTAGAC | -0.163
131 | ATGACTAG | -0.137
132 | ATCCGGCA | -0.101
133 | ATTGGTCA | -0.103
134 | AGGAGCGA | 0.328
135 | GCCCTCTA | -0.301
136 | AGCATAAT | 0.0723
137 | CAGTTACA | -0.0813
138 | AAAACATG | 0.0538
139 | ACGCTCAG | -0.112
140 | GCAGGGCA | -0.18
141 | CTCTCGAC | -0.151
142 | AGCTGATC | 0.00123
143 | GCGATTCA | 0.0973
144 | CGGTACAG | 0.0427
145 | CCGATCTC | -0.0283
146 | CGGTTAAG | 0.218
147 | AAGGACCT | -0.191
148 | AGTGAATC | -0.105
149 | GCAAGAGC | -0.188
150 | CACATCCG | 0.0343

Row | Sequence | PBM E-score
151 | GAATCCCC | -0.196
152 | GCCAGTCA | -0.0828
153 | ACTCAGTC | -0.147
154 | CGATGACG | 0.0786
155 | ATACAACC | 0.0189
156 | ACCGATGA | 0.057
157 | ACTTGAAA | -0.0633
158 | CCCATTCA | -0.11
159 | CACGTAGA | -0.0914
160 | ATGGCCGC | -0.146
161 | AGGTTGTG | -0.284
162 | CGTTTGGC | 0.394
163 | GAACCCCA | -0.161
164 | CGACTAAC | 0.0876
165 | GCATACTA | -0.0263
166 | CCTACCAG | -0.147
167 | CCTAGCTA | -0.314
168 | CAGAAAGA | -0.0327
169 | CACATTTA | -0.276
170 | CCGGGTCA | -0.0203
171 | TGAAATCA | -0.0973
172 | GAGTTTGA | -0.0769
